# Data taken from PubChem BioAssay AID1508624 (National Center for Advancing Translational Sciences (NCATS), 2021).
# The whole screen tested about 48,000 compounds, of which about 120 (0.25%) were called active. About 4% were inconclusive and are not listed. Calls follow the shape of the dose curve; as a rule, active = well fitted activation curve with a large enough effect; inconclusive = small, poorly fitted or top-dose-only effect, or another doubt; inactive = no such curve, though single readings can be large or run the other way. The list shows a part of the results.
# Test: Primary qHTS for Identification of Small Molecule Activators of Huntingtin-Antisense Promoter Activity; also: nearly all actives have a fitted effect of over 55% in size
# Settings: HEK293 HTT-AS promoter firefly luciferase reporter (activity 0% = vehicle and -100% = no light), 24 h; series mostly up to 57.5 µM; activity change, positive = activation: at the top concentration
# Summary of the method: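 Firefly luciferase readout (Dual-Glo, 10 min RT) after 24 h, 37 °C compound exposure (final up to 57.5 uM) of HEK293 reporter cells cultured 24 h beforehand; PTC124 at 50 uM final as control inhibitor; activity scaled vehicle 0%, zero RLU -100%.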
row,SMILES,"activity change, positive = activation"
1,CC(C)CCCC(C)N (stereo not given),inactive: -4.5%
2,O=C(NCCc1ccc(Cl)cc1)c1ccc2c(c1)N(Cc1ccc(F)cc1Cl)C(=O)CS2,inactive: -34.5%
3,CCOC(=O)C(C)NC(=O)c1cc2c(=O)[nH]c3ccc(C)cc3c2s1 (stereo not given),inactive: -3.88%
4,Cc1c(Cl)cccc1NC(=O)C(=O)NCCc1csc(-c2cccc(F)c2)n1,inactive: -8.76%
5,COc1ccc(NC(=O)c2ccc(-c3cccc(Cl)c3C)o2)cc1,inactive: -5.35%
6,COc1ccc(-c2[nH]c(-c3ccccc3)nc2SCC(=O)Nc2ccc3c(c2)OCO3)cc1,inactive: -24.5%
7,CCn1c(CN2CCCCC2)nc2cc(NC(=O)COc3ccc([N+](=O)[O-])cc3)ccc21,inactive: -34.6%
8,COc1ccc(-c2nc(CSc3nc4ncccc4[nH]3)c(C)o2)cc1OC,inactive: -27.5%
9,CC(NC(=O)Cc1ccc(NC(=O)N2CCCCc3ccccc32)cc1)c1ccccc1 (stereo not given),inactive: -13.9%
10,O=C(Nc1ccc(F)cc1)c1cccc(N2CCCS2(=O)=O)c1,inactive: 21.3%
11,CN(C)CCn1nnnc1SCC1=C(C(=O)O)N2C(=O)[C@@H](NC(=O)Cc3csc(N)n3)[C@H]2SC1,inactive: 1.68%
12,Cc1cc(=O)n(C(C)C(=O)NCc2ccccc2Cl)c2c1c(C)nn2-c1ccccc1 (stereo not given),inactive: -14.4%
13,COc1cc(OC)c(C2C=C(c3ccc(C)cc3)Nc3c(C(=O)Nc4ccccc4)cnn32)cc1OC (stereo not given),inactive: -38.5%
14,Cc1ccc(C(C)C)c(OCC(=O)Nc2c(C(=O)c3ccc(F)cc3)oc3ccccc23)c1,inactive: -5.74%
15,Cc1cc(O)c(C(c2ccccc2Cl)N2CCCCC2)c(=O)n1Cc1ccco1 (stereo not given),inactive: 6.36%
16,Cc1c2cnn(CC(=O)N3CCCCC3)c(=O)c2c(C)n1Cc1ccc(Cl)cc1,inactive: -18.4%
17,CCc1ccc(C2N3CC4(C)CN2CC(c2ccccc2)(C3)C4=O)cc1 (stereo not given),inactive: 0.345%
18,CCOC(=O)N1CCN([N+]([O-])=NOc2ccc([N+](=O)[O-])cc2C#N)CC1,inactive: -35.1%
19,CCn1cc(C(=O)NCc2ccccc2)c(=O)c2cc(S(=O)(=O)N3CCOCC3)ccc21,inactive: -14.9%
20,COC(=O)C1=C(C)NC(=O)NC1c1cn(-c2ccccc2)nc1-c1ccc(OC)c(Cl)c1 (stereo not given),inactive: -26.2%
21,CCOc1ccc(CNC(=O)CN2C(=O)CSc3ccc(S(=O)(=O)N4CCOCC4)cc32)cc1OC,inactive: -4.04%
22,CN(C)CCOC(c1ccccc1)c1ccc(Br)cc1 (stereo not given),inactive: -13.6%
23,Cn1c(=O)cc(OCC(=O)N2CCN(c3ccccc3F)CC2)c2ccccc21,inactive: -6.59%

row,SMILES,"activity change, positive = activation"
1,O=C(CCCCn1c(=O)c2ccccc2n(Cc2ccccc2F)c1=O)NCc1ccc2c(c1)OCO2,inactive: -8.73%
2,Cc1cc2oc(C(=O)N(Cc3ccc(N(C)C)cc3)CC3CCCO3)c(C)c2cc1C (stereo not given),inactive: -20.3%
3,O=C(NCc1ccc(Cl)cc1)C1(c2cccs2)CCOCC1,inactive: -16.7%
4,CCC1=Nc2cc(C(=O)NCCCOC(C)C)ccc2Sc2ccc(C)cc21,inactive: -38.7%
5,COC(=O)C1=C(C)NC(C)=C(C(=O)OCCCN2CCC(c3ccccc3)(c3ccccc3)CC2)C1c1cccc([N+](=O)[O-])c1 (stereo not given),inactive
6,CCN1CCc2c(sc(NC(=O)CSc3ccccc3)c2-c2nc3ccccc3s2)C1,inactive: -23.9%
7,CC(=O)c1cccc(Nc2cc(C)nc3nc(-c4ccccc4C)nn23)c1,inactive: -16.1%
8,Cc1ccc(CNC(=O)C2CCCN(c3nc4c(C)cc(C)cc4s3)C2)cc1 (stereo not given),inactive: 21.3%
9,COC(=O)c1ccccc1NC(=O)CCn1nc(C)c2c(C)n(-c3ccccc3)nc2c1=O,inactive: 13.2%
10,Cc1ccc(OCCSc2nc3ccccc3n2CC(=O)N2CCCCC2)cc1C,inactive: -30%
11,O=C(Nc1ccc(NC(=O)c2cccs2)cc1)c1ccc(Cl)cc1,inactive: -9.3%
12,COC(=O)c1ccccc1NC(=O)Cn1ncc2c(C)n(Cc3ccc(F)cc3)c(C)c2c1=O,inactive: -18.3%
13,CCOc1cccc2sc(NC(=O)c3ccc(S(=O)(=O)N4CCc5ccccc54)cc3)nc12,inactive: -15.9%
14,CCc1cccc(C)c1NC(=O)C(CC)Sc1nc2ccncc2[nH]1 (stereo not given),inactive: -14.2%
15,CCCN1CCN(CC2=C(C(=O)OCC)C(c3cccc(OC)c3OC)NC(=O)N2)CC1 (stereo not given),inactive: 6.33%
16,CCCCc1nn2c(=O)cc(COC(=O)c3ccc(NC(=O)c4cccc(OC)c4)cc3)nc2s1,inactive: -5.76%
17,Cc1ccc(NC(=O)N2CCc3c(sc4c3CCCC4)C2c2ccccc2)cc1F (stereo not given),inactive: 22.4%
18,CSc1ncc(C(=O)NCc2ccccc2Cl)c(C(F)(F)F)n1,inactive: -18%
19,COc1ccc(CN2CCN(c3ncnc4sc5c(c34)CCCC5)CC2)cc1F,inactive: -49%
20,CCCCN(C)C(=O)c1ccc2c(c1)N(Cc1cccc(Cl)c1)C(=O)c1ccccc1S2=O (stereo not given),inactive: -37.4%
21,CCOC(=O)CSc1nc2cc3c(cc2c(=O)n1CCCCCC(=O)NCc1ccc2c(c1)OCO2)OCO3,inactive: -7.22%
22,Cc1cc(C)cc(NC(=O)N2CCN(C)c3ncccc32)c1,inactive: -9.74%
